# From PubChem BioAssay AID894 (National Center for Advancing Translational Sciences (NCATS), 2007)
# About 6,500 (4.3%) of roughly 150,000 compounds were called active. This list was built around the results that the source calls inconclusive (neither active nor inactive); the mix of calls is not that of the screen. Calls follow the shape of the dose curve; as a rule, active = well fitted inhibition curve with a large enough effect (not every such curve was filed as active); inconclusive = small, poorly fitted or top-dose-only effect, or another doubt; inactive = no such curve, though single readings can be large or run the other way. Potencies of inconclusive entries are left out as doubtful fits.
# Molecular target: 15-hydroxyprostaglandin dehydrogenase [NAD(+)] (Homo sapiens) (UniProt P15428)
# Assay: qHTS Assay for Inhibitors of HPGD (15-Hydroxyprostaglandin Dehydrogenase)
# Conditions: purified HPGD, NADH fluorescence kinetic, PGE2 substrate; activity change, negative = inhibition: active compounds read low
# Procedure, shortened: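 NADH formation kinetics: reaction with 30 uM PGE2 and 1 mM NAD+ (final), 20 nM enzyme, Tris-HCl pH 8 with Tween 20, after 15 min compound preincubation at room temperature. Fluorescence change, last versus first of five reads.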
# % is scaled to controls: 0 for no effect and ±100 for the full control effect; potency is read from the fitted curve at half-maximal effect; tags tell the direction and shape of the fitted curve.
# Chain of UniProt P15428 (P15428 whole entry, looked up): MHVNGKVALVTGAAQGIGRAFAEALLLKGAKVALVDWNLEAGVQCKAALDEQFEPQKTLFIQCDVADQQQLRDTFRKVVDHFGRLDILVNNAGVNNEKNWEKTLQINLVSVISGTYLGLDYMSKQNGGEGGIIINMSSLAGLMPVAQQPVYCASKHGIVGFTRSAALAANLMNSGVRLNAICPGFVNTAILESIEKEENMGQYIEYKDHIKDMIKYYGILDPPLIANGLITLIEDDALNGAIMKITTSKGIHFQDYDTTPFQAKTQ
SMILES,Potency,"activity change, negative = inhibition"
Nc1ccc(O)c2c1C(=O)c1ccccc1C2=O,active: 12.6 µM,–
Cc1ccc(Cl)cc1NC(=O)c1cnn2c1NC(c1ccco1)CC2C(F)(F)F (configuration not stated),–,inactive: -20.8%
CC(=O)NS(=O)(=O)c1cccnc1Nc1cccc(Cl)c1,–,inactive: -7.86%
Cc1ccc(-n2nnnc2-c2ccco2)cc1,–,inactive: -10.2%
COc1cc2c(cc1NC(=O)c1ccc(C(C)(C)C)cc1)CCCC2,"inconclusive [inhibitor, partial curve]",–
CN1CCN(C2=Cc3ccccc3Sc3cc(F)c(Cl)cc32)CC1,active: 28.2 µM,–
CCCCNc1nc(-c2ccccc2)cc(C(F)(F)F)c1C(N)=O,"inconclusive [inhibitor, partial curve]",–
CCC(=O)N(CCC(c1ccccc1)c1ccco1)Cc1cccs1 (configuration not stated),–,inactive: -19.9%
CC(Nc1nc(N2CCN(S(C)(=O)=O)CC2)nc2ccccc12)c1ccccc1 (configuration not stated),"inconclusive [inhibitor, partial curve]",–
CN(CC(=O)NCCC1=CCCCC1)S(=O)(=O)c1ccc2c(c1)c(=O)n(C)c(=O)n2C,–,inactive: -10.1%
c1ccc2c(N3CCOCC3)nc(N3CCOCC3)nc2c1,"inconclusive [inhibitor, partial curve]",–
Cc1cc(-c2nc3cccnc3s2)ccc1NS(=O)(=O)c1ccc2c(c1)OCCO2,"inconclusive [inhibitor, partial curve]",–
CCC(C)n1c(C)nc2c(c1=O)c1nc3ccccc3nc1n2CCC1=CCCCC1 (configuration not stated),"inconclusive [inhibitor, partial curve]",–
CCCC(=O)NCCc1cc2ccc(C)c(C)c2[nH]c1=O,"inconclusive [inhibitor, partial curve]",–
CC1CN(C(=O)COC(=O)c2ccc(N)c([N+](=O)[O-])c2)CC(C)O1 (configuration not stated),active: 28.2 µM,–
O=C(NCCOC(=O)c1ccc(C(=O)OCCNC(=O)c2ccccc2)o1)c1ccccc1,active: 7.94 µM,–
O=C(COC(=O)/C=C/c1cccc(Cl)c1)NCCC1=CCCCC1,–,inactive: 0.509%
O=[N+]([O-])c1ccccc1-c1ccc(/C=N/n2cnnc2)o1,active: 15.8 µM,–
O=C(/C=C/c1c(Cl)cccc1Cl)NCc1ccco1,"inconclusive [inhibitor, full curve]",–
O=C(O)c1cccc(COc2ccccc2Cl)c1,"inconclusive [inhibitor, partial curve, poor fit]",–
Cc1nnc(SCC(=O)N/N=C/c2cn(-c3ccccc3)nc2-c2ccc(F)cc2)n1-c1ccccc1,"inconclusive [inhibitor, partial curve]",–
COc1ccc(C(O)c2nc3ccccc3s2)cc1 (configuration not stated),–,inactive: -26.4%
O=C(c1cc(-c2ccc(Cl)cc2Cl)on1)N1CCOCC1,"inconclusive [inhibitor, partial curve]",–
CC1(C)CC2CC(C)(CN2C(=O)c2cc(-c3ccccc3O)on2)C1 (configuration not stated),–,inactive: -26.4%

SMILES,Potency,"activity change, negative = inhibition"
COc1ccc(-c2cc(C(F)F)n3ncc(C(=O)N4CCN(C(=O)c5ccco5)CC4)c3n2)cc1,"inconclusive [inhibitor, partial curve]",–
COc1ccc(/C=N/N=C2/NC(=O)C(CC(=O)O)S2)cc1OCc1ccc(Cl)cc1 (configuration not stated),"inconclusive [inhibitor, single point]",–
CCn1cc(/C=C/C(=O)Nc2ccn(Cc3c(F)c(F)cc(F)c3F)n2)cn1,"inconclusive [inhibitor, single point]",–
O=C1NCCCC1C(=O)N/N=C/c1ccccc1O (configuration not stated),"inconclusive [inhibitor, partial curve]",–
O=C(N/N=C/c1ccc(OC(=O)c2ccccc2)c([N+](=O)[O-])c1)c1ccc(O)cc1,–,inactive: -11.9%
CCOC(=O)C(C)Sc1ccc2nnc(-c3ccc(F)cc3)n2n1 (configuration not stated),"inconclusive [inhibitor, partial curve]",–
CC(=O)c1ccc(Sc2ccccc2)cc1,"inconclusive [inhibitor, partial curve, poor fit]",–
S=c1nc[nH]c2c1sc1nc(-c3ccccc3)c3c(c12)CCCC3,–,inactive: -19.6%
O=C(NC1CCCCCC1)c1ccccc1-c1ccccc1,–,inactive: -15.7%
CCC1=NNc2cccc3c(OC)ccc1c23,active: 14.1 µM,–
COc1ccc(OC)c(/C=N/NC(=O)c2cc(-c3ccc(C)o3)nc3ccccc23)c1,"inconclusive [inhibitor, partial curve]",–
CCOC(=O)CNC(c1ccccc1)c1cc(Br)ccc1NC(=O)CCN1CCOCC1 (configuration not stated),active: 31.6 µM,–
COC(=O)c1[nH]c2ccc(C)cc2c1NC(=O)CN1CCCc2ccccc21,"inconclusive [inhibitor, partial curve]",–
CCN(CC)CCCC(C)Nc1c2ccc(Cl)cc2nc2ccc(OC)cc12 (configuration not stated),–,inconclusive: -35.9% [inhibitor]
COc1ccc(OC)c(C2=Nn3c(nnc3-c3ccncc3)SC2)c1,–,inactive: -12.4%
COc1ccc(Nc2nc(NCc3ccco3)nc(N/N=C/c3ccc(O)cc3)n2)cc1,"inconclusive [inhibitor, partial curve]",–
CS(=O)(=O)N1CCC2(CC1)CN(C(=O)Nc1ccccc1)C2,–,inactive: -7.08%
CCN(CC)C(=O)CSc1nc(N)c2c3c(sc2n1)CC(C)CC3 (configuration not stated),active: 14.1 µM,–
Cc1cc(NS(=O)(=O)c2ccc(NC(=O)CCc3ccccc3)cc2)no1,–,inactive: -16.7%
CCN(CC)S(=O)(=O)c1ccc(N2CCCCC2)c(NC(=O)/C=C/c2ccc(OC)c(OC)c2)c1,"inconclusive [inhibitor, full curve, poor fit]",–
OC1CN=C2C=CC=CN2C1 (configuration not stated),"inconclusive [inhibitor, partial curve]",–
CCN(CC)S(=O)(=O)c1cccc(S(=O)(=O)c2cccc(S(=O)(=O)N(CC)CC)c2)c1,–,inactive: 4.18%
CCn1c2ccccc2c2cc(CN3CCN(C(=O)c4ccco4)CC3)ccc21,"inconclusive [inhibitor, partial curve]",–
